Measured values published in US20260209325A1, “SELECTIVE AND POTENT INHIBITORY ANTIBODIES OF MYOSTATIN ACTIVATION” (SCHOLAR ROCK, INC., priority 2022, published 2026).

B1: Ab102: anti-pro/latent myostatin antibody; CDR sequences in Table 2d (antibody)
heavy: EVQLVESGGGLVQPGGSLRLSCAASGFTFTSYGMSWVRQAPGKGLELVASITGSGGETYYPDSVKGRFTISRDNAKNSLYLQMNSLRAEDTAVYYCARDLLVRFLEWSHYYGMDVWGQGTTVTVSSASTKGPSVFPLAPCSRSTSESTAALGCLVKDYFPEPVTVSWNSGALTSGVHTFPAVLQSSGLYSLSSVVTVPSSSLGTKTYTCNVDHKPSNTKVDKRV[human IgG4 Fc with S228P (EU numbers) left out]
light: DIVMTQSPLSLPVTPGEPASISCRSSQSLLHSSGHNFLHWYLQKPGQSPQLLIYETSNRAPGIPDRFSGSGSGTDFTLKISRVEAEDVGVYYCMQATQFPRPFGGGTKVEIKRTVAAPSVFIFPPSDEQLKSGTASVVCLLNNFYPREAKVQWKVDNALQSGNSQESVTEQDSKDSTYSLSSTLTLSKADYEKHKVYACEVTHQGLSSPVTKSFNRGEC
B2: Ab133: anti-pro/latent myostatin antibody; CDR sequences in Table 2d (antibody)
heavy: EVQLVESGGGLVQPGGSLRLSCAASGFTFSSYGMSWVRQAPGKGLELVASFTGSGGAYYPDSVKGRFTISRDNAKNSLYLQMNSLRAEDTAVYYCARDLLIRFLEWSHYYGMDVWGQGTTVTVSSASTKGPSVFPLAPCSRSTSESTAALGCLVKDYFPEPVTVSWNSGALTSGVHTFPAVLQSSGLYSLSSVVTVPSSSLGTKTYTCNVDHKPSNTKVDKRV[human IgG4 Fc with S228P (EU numbers) left out]
light: DIVMTQSPLSLPVTPGEPASISCRSSQSLLHSSGHNFLHWYLQKPGQSPQLLIYEVSNRVSGVPDRFSGSGSGTDFTLKISRVEAEDVGVYYCQQQTQYPGTFGGGTKVEIKRTVAAPSVFIFPPSDEQLKSGTASVVCLLNNFYPREAKVQWKVDNALQSGNSQESVTEQDSKDSTYSLSSTLTLSKADYEKHKVYACEVTHQGLSSPVTKSFNRGEC
B3: Ab141: anti-pro/latent myostatin antibody; CDR sequences in Table 2d (antibody)
heavy: EVQLVESGGGLVQPGGSLRLSCAASGFTFSSYGMSWVRQAPGKGLELVASFTGSGGAYYPDSVKGRFTISRDNAKNSLYLQMNSLRAEDTAVYYCARDLLIRFLEWSHYYGMDVWGQGTTVTVSSASTKGPSVFPLAPCSRSTSESTAALGCLVKDYFPEPVTVSWNSGALTSGVHTFPAVLQSSGLYSLSSVVTVPSSSLGTKTYTCNVDHKPSNTKVDKRV[human IgG4 Fc with S228P (EU numbers) left out]
light: DIVMTQSPLSLPVTPGEPASISCRSSQSLLHSSGHNFLHWYLQKPGQSPQLLIYEVSNRVSGVPDRFSGSGSGTDFTLKISRVEAEDVGVYYCMQQTQYPGTFGGGTKVEIKRTVAAPSVFIFPPSDEQLKSGTASVVCLLNNFYPREAKVQWKVDNALQSGNSQESVTEQDSKDSTYSLSSTLTLSKADYEKHKVYACEVTHQGLSSPVTKSFNRGEC

How the values were obtained:
total myostatin [1] = assay: circulating total myostatin in serum by ELISA after acidification, dexamethasone study; assay type: in vivo, mouse; conditions: statement in description
Experimental: An assay of the target engagement of the antibodies, i.e., a pharmacodynamic assay, can be performed by measuring the binding of the antibodies to myostatin. In some embodiments, myostatin is detected as described by Lakshman et al. (Mol. Cell. Endocrinol. (2009) 302(1): 26-32), the contents of which are incorporated herein in their entirety. In some embodiments, samples are treated with acid to convert all myostatin forms to the mature growth factor; a biotinylated capture antibody that is specific for mature myostatin is added to a streptavidin coated plate and detected with a labeled antibody that is specific for mature myostatin.
Briefly, serum samples were acidified at low pH (e.g., pH ~2.5) to dissociate the bound antibody from the immune complex and to convert all myostatin in the sample to the active form of growth factor (i.e., mature myostatin). Samples were then neutralized and assayed for the presence of mature myostatin on ELISA plates coated with anti-mature myostatin antibodies as capture reagents.

[2] = AC-SINS self-interaction (aggregation behavior); assay type: physicochemical; conditions: cutoff: shift of >5 nm in plasmon wavelength
Experimental: Developability profiles may be assessed by well-known parameters. […] In some embodiments, antibodies are tested for aggregation behavior by affinity capture self-interaction nanoparticle spectroscopy (AC-SINS). […] Typically, gold nanoparticles are coated with polyclonal antibodies that are specific for human monoclonal antibodies and the monoclonal antibodies are captured by the conjugates. The polyvalency of the monoclonal antibody conjugates amplifies the attractive self-interactions, i.e., aggregation between the adsorbed antibodies. This leads to reduced inter-particle separation distances and is detected by a change in color of the gold colloid solution, which may be quantified by a change in the wavelength of maximum absorbance (plasmon wavelength). Plasmon wavelength of 530 nm may be used as the reported value for unaggregated gold nanoparticles. Antibodies with a tendency to self-aggregate shift the plasmon wavelength toward the red end of the spectrum. In some embodiments, a shift of greater than 5 nm (i.e., >5 nm) in plasmon wavelength may be used as the cutoff indicative of self-interacting antibodies.
The antibodies were tested for aggregation behavior by affinity capture self-interaction nanoparticle spectroscopy (AC-SINS). Gold nanoparticles were coated with polyclonal antibodies that are specific for human monoclonal antibodies and the monoclonal antibodies are captured by the conjugates. The polyvalency of the monoclonal antibody conjugates amplifies the attractive self-interactions, i.e., aggregation between the adsorbed antibodies. This leads to reduced inter-particle separation distances and is detected by a change in color of the gold colloid solution, which was quantified by a change in the wavelength of maximum absorbance (plasmon wavelength). Plasmon wavelength of 530 nm was used as the reported value for unaggregated gold nanoparticles. Antibodies with a tendency to self-aggregate shift the plasmon wavelength toward the red end of the spectrum. A shift of greater than 5 nm (i.e., >5 nm) in plasmon wavelength was used as the cutoff indicative of self-interacting antibodies.

human pro-myostatin [3] = molecular target: T1, human pro-myostatin (Homo sapiens, UniProt O14793); assay: Biacore 8k SPR binding affinity, human pro-myostatin
Excerpt: (§1) The Biacore™ 8k SPR system was utilized to evaluate the binding affinity of myostatin antibodies to biotinylated human, murine, and cyno pro-myostatin. Biotin CAPture kit and sensor chips (Cytiva) were utilized in these experiments to immobilize the various antigens, followed by flowing a range of concentrations of each of the test antibodies.

murine pro-myostatin = murine pro-myostatin (Mus musculus, UniProt O08689); assay: Biacore 8k SPR binding affinity, murine pro-myostatin
Excerpt: as §1

[4] = dexamethasone-induced muscle atrophy mouse model; assay type: in vivo; conditions: dexamethasone treated mice
Summary of the method: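 Male C57BL6 mice (n=8, 13-14 weeks) received dexamethasone in drinking water (2.5 mg/kg) for 14 days, with vehicle (PBS), human IgG or antibody (0.3 to 10 mg/kg) dosed on days 1 and 7. Lean mass was measured by qNMR; at day 14, gastrocnemius and quadriceps weights and serum myostatin were recorded. ANOVA with Dunnett's test.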

cyno pro-myostatin = cyno pro-myostatin (Macaca fascicularis, UniProt Q95J86); assay: Biacore 8k SPR binding affinity, cyno pro-myostatin; set-up: species or system cynomolgus monkey
Excerpt: as §1

human pro-myostatin [5] = molecular target: T1, human pro-myostatin; assay: SEC-MALS binding stoichiometry; conditions: for Observed Molecular Weight / Predicted Molecular Weight / Difference Observed vs. Predicted: mAb:pro-myostatin complex; for Difference Observed vs. Predicted: < / > = observed below / above predicted
[6] = serum antibody exposure (PK) in obese mice with or without semaglutide (Example 8); assay type: in vivo, mouse; conditions: 0.1 to 3 mg/kg i.p. days 0, 7, 14, alone or with semaglutide; FIG. 16A
Experimental: (§2) Male 19 week old C7/BL6 mice fed a high fat diet to induce obesity (DIO-B6-M mice, were evaluated for the effect of the combination of antibody and semaglutide on the exposure of the antibody to the target antigen (PK) and the total myostatin serum level (PD), as shown in Table 25. Animals were dosed with antibody intraperitoneally on days 0, 7, and 14 and were dosed with semaglutide subcutaneously daily throughout the study. Exposure of the antibody to immobilized promyostatin was determined by ELISA. Total serum myostatin was also measured by ELISA. The study concluded on day 22, when terminal bleeds were obtained.

free latent myostatin = molecular target: T2, free latent myostatin (Mus musculus, UniProt O08689); assay: serum free latent myostatin in obese mice with or without semaglutide (Example 8); assay type: in vivo; conditions: in presence or absence of semaglutide, day 22; FIG. 16C
T2 construct: from tissue; host or cells: mouse serum
Excerpt: In another embodiment, a pharmacodynamic assay, can be performed by measuring the binding of the antibodies to serum free latent myostatin (i.e., circulating latent myostatin that is not bound by the antibody). Such an assay may immobilize streptavidin, bind a biotinylated antibody known to bind latent myostatin, add latent myostatin, and test the ability of an antibody to bind to the free latent myostatin by labeling the test antibody with a detectable marker. […] In such an embodiment, the detection range of the assay may be in the nanogram range, e.g., 0.1 ng/ml-750 ng/ml, 1.0 ng/ml-500 ng/ml, or 3.0 ng/ml-500 ng/ml, e.g., 3.9-500 ng/mL. […]
as §2

[7] = semaglutide plus Ab109 or Ab141 in diet-induced obesity mice (Example 5); assay type: in vivo, mouse; conditions: with semaglutide 0.040 mg/kg daily; FIGS. 13A-B
Experimental: Male C57/BL6 mice were a high-fat diet containing 60% fat then switched to a diet containing 45% fat. […] Body weight and body composition determined by qNMR were recorded at days 7, 14, and 21 after dosing. Gastrocnemius weight, inguinal, and perigonadal fat pad weights were recorded at the end of the study. Liver and terminal blood were collected to measure the levels of glucose and insulin.

total myostatin [8] = assay: total serum myostatin (PD) in obese mice with or without semaglutide (Example 8); assay type: in vivo, mouse; conditions: 0.1 to 3 mg/kg, alone or with semaglutide; FIG. 16B
Experimental: as §2

Molecule | accumulation of myostatin in serum of dosed subjects, compared with apitegromab (total myostatin [1]) | aggregation behavior by AC-SINS [2] | Ka (human pro-myostatin [3]) | Kd (1/s) (human pro-myostatin [3]) | Ka (murine pro-myostatin) | Kd (1/s) (murine pro-myostatin) | Ka (cyno pro-myostatin) | Kd (1/s) (cyno pro-myostatin) | also measured
B1 | reduced accumulation of circulating latent myostatin | did not display aggregation behavior | 6.49e+06 M⁻¹ s⁻¹ | 0.000376 s⁻¹ | 6.11e+06 M⁻¹ s⁻¹ | 0.0005 s⁻¹ | 6.8e+06 M⁻¹ s⁻¹ | 0.000335 s⁻¹ | maintenance of body weight (percent change from baseline) ([4]; antibody 3 mg/kg/day, FIG. 6A, 9A): to a greater extent than Ab2; preservation of lean mass by qNMR ([4]; antibody 3 mg/kg/day, FIG. 6B, 9B): to a greater degree than the 10 mg/kg/day dose of Ab2; preservation of gastrocnemius weight ([4]; antibody 3 mg/kg/day, FIG. 6C, 9C): highly effective in preserving gastrocnemius weight
B2 | reduced accumulation of circulating latent myostatin | did not display aggregation behavior | 2.84e+06 M⁻¹ s⁻¹ | 0.000116 s⁻¹ | 3.01e+06 M⁻¹ s⁻¹ | 0.000162 s⁻¹ | 2.86e+06 M⁻¹ s⁻¹ | 0.000109 s⁻¹ | SEC-MALS Result (kDa) (human pro-myostatin [5]; input ratio mAb:pro-myostatin 1:1 (peak 1)): 405 kDa; SEC-MALS Result (kDa) (human pro-myostatin [5]; input ratio mAb:pro-myostatin 1:1 (peak 2)): 302.9 kDa; Observed Molecular Weight (human pro-myostatin [5]; Peak 1): 405.0 kDa; Predicted Molecular Weight (human pro-myostatin [5]; Peak 1): 398.99 kDa; Difference Observed vs. Predicted (human pro-myostatin [5]; Peak 1): >6.01 kDa; Observed Molecular Weight (human pro-myostatin [5]; Peak 2): 302.9 kDa; Predicted Molecular Weight (human pro-myostatin [5]; Peak 2): 329.58 kDa; Difference Observed vs. Predicted (human pro-myostatin [5]; Peak 2): <26.68 kDa; body weight ([4]; fourth experiment, FIG. 10A): prevented dexamethasone-induced weight loss; lean mass by qNMR ([4]; fourth experiment, FIG. 10B): attenuated the loss of lean mass
B3 | reduced accumulation of circulating latent myostatin | did not display aggregation behavior | 2.79e+06 M⁻¹ s⁻¹ | 0.000112 s⁻¹ | 2.93e+06 M⁻¹ s⁻¹ | 0.000156 s⁻¹ |  |  | serum exposure of antibody (PK) [6]: dose proportional between 0.1 and 3 mg/kg; serum free latent myostatin (not bound by antibody) (free latent myostatin): reduced below the level of quantitation; fat mass loss (subcutaneous and epididymal adipose tissue weight) [7]: increased fat mass loss as compared to Ab109 or Ab141 alone; serum total myostatin (total myostatin [8]): not affected by the presence of semaglutide
